Data published in ChEMBL document CHEMBL4888484, “Replenishing the malaria drug discovery pipeline: Screening and hit evaluation of the MMV Hit Generation Library 1 (HGL1) against asexual blood stage Plasmodium falciparum ,using a nano luciferase reporter read-out” (2022).
The campaign covered roughly 150,000 compounds. About 540 (0.36%) showed an effect of 50% or more. Some of the results follow.

System: Plasmodium falciparum
Experiment: Primary screen in NF54 nanoGlo assay, in single point, at 2uM, 72h; a lower Z score goes with more inhibition
Assay type: functional, Erythrocyte
Conditions: timepoint 72 hour

Compound | % Inhibition | Z score
CN1CCN(S(=O)(=O)c2ccc3c(c2)CCN3)CC1 | -6% | 0.75
Cc1nn(C)c2sc(C(=O)N3CCOCC3)cc12 | -1% | 0.22
CNC(=O)Cc1noc(-c2ccsc2)n1 | 21% | -2.1
CCOC(=O)N1CCC(N2CCOc3c(cc(-c4ccc(C(F)(F)F)cn4)cc3OC)C2)CC1 | -3% | 0.61
O=C(N[C@H]1CCc2nnc(C3CC3)n2CC1)c1cccnc1O | -6% | 0.86
COc1cccc(CN2CCC3(CC[C@@H]3OC)CC2)c1OC | -4% | 0.76
Cc1nc(CN(C)C(=O)C(=O)Nc2cc(F)c(F)cc2F)cs1 | -8% | 1.48
CCOC(=O)c1c(C)[nH]c(-c2ccc(F)cc2)c1O | 5% | -0.74
CC(C)S(=O)(=O)CCCOc1cccc(F)c1C#N | -6% | 0.96
Cc1ncc2c(n1)CCN(Cc1cc(Cl)c3c(c1)OCCO3)C2 | -16% | 2.24
CC(=O)Oc1c(-c2ccc(NC(=O)C(C)C)cc2)c(-c2ccc(C)cc2)nn1-c1ccc(C)cc1 | 16% | -2.88
COC(=O)[C@H]1CCc2nnc(C(=O)Nc3ccccn3)n2C1 | -13% | 1.08
CN1C(=O)c2cc(NC(=O)COc3ccc(Cl)cc3)ccc2Oc2ccccc21 | -6% | 0.63
O=C(Nc1cccc(Br)c1)C1CCN(c2cc(N3CCCC3)ncn2)CC1 | 2% | -0.35
O=S(=O)(N1CCCCC1)N1CCC(c2nnc3n2CCC3)CC1 | -1% | 0.1
Cc1ccc(-n2nnc(C(=O)O)c2-c2cccnc2)c(F)c1 | -14% | 1.52
CCn1cc(C(=O)N2C[C@@H]3CC[C@H]2CN(C)C3)c(C)n1 | -9% | 1.57
CC1CN(C)CCC1N(C)C(=O)Nc1ccn(CCCC#N)n1 (stereo not drawn) | 4% | -0.33
CN(Cc1coc(-c2ccc(S(C)(=O)=O)cc2)n1)C1CCN(c2ncccn2)CC1 | 6% | -0.58
C=C(C)CN1CCN(Cc2cc3ccc(Cl)cc3nc2O)CC1 | -9% | 1.14
c1ccc2oc(-c3nc(C4CC4)n[nH]3)cc2c1 | -12% | 1.37
COc1ccccc1N1CCN([C@H]2CCOC2=O)CC1 | -4% | 0.69
O=C(NC[C@H]1Cc2ccccc2O1)c1ccncc1 | -10% | 1.37
Cc1cc(OC2CCN(C(=O)Cc3cccc4ccccc34)CC2)cc(=O)n1C | -11% | 1.86
